25 molecules from the supplement of paper PMC10037445 can be followed below.

The structures appear in SMILES notation. Where “and” joins values, the source holds several entries; their conditions need not be identical. Identical values can stand only once. Whole data set: some 2,900 compounds, median “IRF Lucia reporter activity, fold change vs agonist alone” near 0.9, cut for the highest 2% near 2.8. Some of the results follow.

For assay [1], the system named is RAW-Dual. Briefly: IRF Lucia reporter activity, fold change vs agonist alone; cytotoxicity flag (confluency mask): not cytotoxic; higher = enhanced IRF activity. The procedure, abridged:
(§1)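 RAW-Dual macrophages were seeded in DMEM at 50,000 cells/well in 384-well plates, given 50 nL of library stock by pin tool, and given a PRR agonist 1 h later. Plates were held at 37 °C, 5% CO2 for 20 hours, after which supernatant was read for IRF by QuantiLuc luminescence and for NF-κB by QuantiBlue absorbance at 620 nm. Reporter activity is expressed as fold change over wells that received agonist alone. A well was called cytotoxic when IncuCyte confluency fell below 70% of agonist controls in both mask sets.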

In assay [2] the test system is RAW-Dual. Briefly: IRF Lucia reporter activity, fold change vs agonist alone; higher = enhanced IRF activity. Particulars: agonist: MPLA (TLR4) […]. The procedure, abridged:
as §1

Assay [3] deals with RAW-Dual. Kind of assay: IRF Lucia reporter activity, fold change vs agonist alone; cytotoxicity flag (confluency mask): cytotoxic (confluency <70% of control); higher = enhanced IRF activity. The gist of the method: as §1
The mark [4] stands for this setting: agonist: 3'3'-cGAMP (STING) 10 ug/mL.
Where [5] appears, read: library stock concentration (final ~1000-fold dilution): 10 mM, cytotoxicity flag (confluency mask): not cytotoxic.

Consider `Nc1ncnc2[nH]nc(Nc3ccc(F)cc3)c12` (library stock concentration (final ~1000-fold dilution): 10 mM), for which the “IRF Lucia reporter activity” value in assay [1] (setting [4]) is 0.171; in assay [1] (agonist: LPS (TLR4) 0.1 ug/mL), 0.472.
As for `Nc1ncnc2[nH]nc(Nc3ccc(F)cc3)c12`, the “IRF Lucia reporter activity” value in assay [2] (setting [5]) is 0.661.
Regarding `CSCC(N)C(=O)O` (stereo not given) (library stock concentration (final ~1000-fold dilution): 10 mM), the “IRF Lucia reporter activity” value amounted to 0.989 in assay [1] (setting [4]) and 1.05 in assay [1] (agonist: LPS (TLR4) 0.1 ug/mL).
As for `CCCCc1oc2ccc(NS(C)(=O)=O)cc2c1C(=O)c1ccc(OCCCN(CCCC)CCCC)cc1` (library stock concentration (final ~1000-fold dilution): 10 mM), the “IRF Lucia reporter activity” value in assay [3] (setting [4]) was 0.609; in assay [3] (agonist: LPS (TLR4) 0.1 ug/mL) it was 0.331.
For the molecule `CCCCc1oc2ccc(NS(C)(=O)=O)cc2c1C(=O)c1ccc(OCCCN(CCCC)CCCC)cc1`, the “IRF Lucia reporter activity” value in assay [2] (library stock concentration (final ~1000-fold dilution): 10 mM, cytotoxicity flag (confluency mask): cytotoxic (confluency <70% of control)) was found to be 0.671.
In the case of `COc1cccc2c1C(=O)c1c(O)c3c(c(O)c1C2=O)CC(O)(C(=O)CO)CC3OC1CC(N)C(O)C(C)O1` (stereo not given), in assay [2] (setting [5]), the “IRF Lucia reporter activity” value was 0.0302.
As to `COc1cccc2c1C(=O)c1c(O)c3c(c(O)c1C2=O)CC(O)(C(=O)CO)CC3OC1CC(N)C(O)C(C)O1` (stereo not given) (library stock concentration (final ~1000-fold dilution): 10 mM), the “IRF Lucia reporter activity” value in assay [1] (setting [4]) amounted to 0.0119; in assay [1] (agonist: LPS (TLR4) 0.1 ug/mL) it was 0.0243.
With `COc1cc(Nc2c(C#N)cnc3cc(OCCCN4CCN(C)CC4)c(OC)cc23)c(Cl)cc1Cl` (library stock concentration (final ~1000-fold dilution): 10 mM), the “IRF Lucia reporter activity” value in assay [1] (setting [4]) came to 0.817; in assay [1] (agonist: LPS (TLR4) 0.1 ug/mL), 1.11.
`COc1cc(Nc2c(C#N)cnc3cc(OCCCN4CCN(C)CC4)c(OC)cc23)c(Cl)cc1Cl`: the “IRF Lucia reporter activity” value in assay [2] (setting [5]) came to 0.95.
For `CCn1c(=O)c(-c2ccc(Cl)cc2Cl)cc2cnc(Nc3ccc(N4CCNCC4)c(F)c3)nc21` (library stock concentration (final ~1000-fold dilution): 10 mM), the entries for the “IRF Lucia reporter activity” value in assay [3] (setting [4]) and in assay [3] (agonist: LPS (TLR4) 0.1 ug/mL) were 0.0945 and 0.139, respectively.
For the molecule `COc1ccc(Cl)cc1NC(=O)Nc1cc(C)nc2ccccc12` (library stock concentration (final ~1000-fold dilution): 10 mM), the figures for the “IRF Lucia reporter activity” value in assay [1] (setting [4]) and in assay [1] (agonist: LPS (TLR4) 0.1 ug/mL) were 0.704 and 1.67, respectively.
As to `COc1cc2c(cc1O)CC[n+]1cc3c(OC)c(OC)ccc3cc1-2` (library stock concentration (final ~1000-fold dilution): 10 mM), the “IRF Lucia reporter activity” value is 1.06 and 1.19 in assay [1] (setting [4]); 1.28 and 1.17 in assay [1] (agonist: LPS (TLR4) 0.1 ug/mL).
Regarding `COc1cc2c(cc1O)CC[n+]1cc3c(OC)c(OC)ccc3cc1-2`, the “IRF Lucia reporter activity” value in assay [2] (setting [5]) amounted to 1.08.
`c1ccc(-c2ccc(C(c3ccccc3)n3ccnc3)cc2)cc1` (stereo not given): the “IRF Lucia reporter activity” value in assay [2] (setting [5]) came out at 0.879.
Take `c1ccc(-c2ccc(C(c3ccccc3)n3ccnc3)cc2)cc1` (stereo not given) (library stock concentration (final ~1000-fold dilution): 10 mM): the “IRF Lucia reporter activity” value in assay [1] (setting [4]) worked out at 0.958; in assay [1] (agonist: LPS (TLR4) 0.1 ug/mL), 1.07.
Turning to `O=c1[nH]c2ccccc2n1CCN1CCN(c2cccc(C(F)(F)F)c2)CC1` (library stock concentration (final ~1000-fold dilution): 10 mM), the “IRF Lucia reporter activity” value in assay [1] (setting [4]) was found to be 1.23; in assay [1] (agonist: LPS (TLR4) 0.1 ug/mL) it was 1.45.
With `O=c1[nH]c2ccccc2n1CCN1CCN(c2cccc(C(F)(F)F)c2)CC1`, in assay [2] (setting [5]), the “IRF Lucia reporter activity” value was found to be 1.44.
`COc1cc(/C=C/C(=O)/C=C(O)/C=C/c2ccc(O)c(OC)c2)ccc1O` (library stock concentration (final ~1000-fold dilution): 10 mM): the “IRF Lucia reporter activity” value in assay [1] (setting [4]) worked out at 0.0353; in assay [1] (agonist: LPS (TLR4) 0.1 ug/mL), 0.212.
As to `COc1cc(/C=C/C(=O)/C=C(O)/C=C/c2ccc(O)c(OC)c2)ccc1O`, the “IRF Lucia reporter activity” value in assay [2] (setting [5]) is 0.0828.
`COC(=O)C1=C(C)NC(C)=C(C(=O)OC(C)(C)CN(C)CCC(c2ccccc2)c2ccccc2)C1c1cccc([N+](=O)[O-])c1` (stereo not given) (library stock concentration (final ~1000-fold dilution): 10 mM): the figures for the “IRF Lucia reporter activity” value in assay [1] (setting [4]) and in assay [1] (agonist: LPS (TLR4) 0.1 ug/mL) were 0.134 and 1.96, respectively.
For the molecule `COC(=O)C1=C(C)NC(C)=C(C(=O)OC(C)(C)CN(C)CCC(c2ccccc2)c2ccccc2)C1c1cccc([N+](=O)[O-])c1` (stereo not given), the “IRF Lucia reporter activity” value in assay [2] (setting [5]) came to 2.39.
Consider `CC1CC2C3CCC4=CC(=O)C=CC4(C)C3(F)C(O)CC2(C)C1(O)C(=O)COP(=O)(O)O` (stereo not given), for which, in assay [2] (library stock concentration (final ~1000-fold dilution): 10 mM water, cytotoxicity flag (confluency mask): not cytotoxic), the “IRF Lucia reporter activity” value was 1.15.
For the molecule `CC1CC2C3CCC4=CC(=O)C=CC4(C)C3(F)C(O)CC2(C)C1(O)C(=O)COP(=O)(O)O` (stereo not given) (library stock concentration (final ~1000-fold dilution): 10 mM water), the “IRF Lucia reporter activity” value in assay [1] (setting [4]) is 0.781; in assay [1] (agonist: LPS (TLR4) 0.1 ug/mL), 0.613.
The like results for `CCCNC(=O)c1cn2ncnc(Nc3cc(C(=O)NC4CC4)ccc3C)c2c1C` (library stock concentration (final ~1000-fold dilution): 10 mM) were, in that order, 1.08 and 1.16.
The like results for `O=C(Nc1cccnc1)c1cc(-c2ccnc(F)c2)ccc1OCc1ccccc1` (library stock concentration (final ~1000-fold dilution): 10 mM) were, in that order, 0.769 and 1.13.
